Our source for the median fc (fraction of cross-correlation) and stoichiometry N values is article doi:10.1101/2024.05.03.592409.

The experiment concerns the target HER3 (human) (UniProt P21860). Briefly: PIE-FCCS.

Regarding “HER3 (a stretch of the chain, chain not printed) (receptor; other documents disagree on this pair)”, the median fc (fraction of cross-correlation) was determined as 0.1 and the stoichiometry N amounted to 2.

As usually defined, the stoichiometry N is the number of molecules, sites or subunits per partner or assembly.
